# Measured values reported in the supplement of paper PMC4604168 (melanoma cell lines).
# Some of the results follow. Many values rest on one well or one pass, so single values are uncertain.
# Columns and labels:
# Assay in all cases: cell count relative to DMSO control; melanoma cells; higher = more viable cells
# Details in all cases: library dose: standard library concentration; 72 h
# G361 = system: G361
# IPC-298 = system: IPC-298
# IST-MEL1 = system: IST-MEL1
# LB2518-MEL = system: LB2518-MEL
# LOXIMVI = system: LOXIMVI
# MEL-HO = system: MEL-HO
# MZ2-MEL = system: MZ2-MEL
# MeWo = system: MeWo
# RPMI7951 = system: RPMI7951
# RVH-421 = system: RVH-421
# 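Also: cells treated in 1,536-well plates, then fixed and DAPI-stained, with nuclei counted from automated high-throughput microscope images.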
Structure (SMILES),cell count (G361) [%],cell count (IPC-298) [%],cell count (IST-MEL1) [%],cell count (LB2518-MEL) [%],cell count (LOXIMVI) [%],cell count (MEL-HO) [%],cell count (MZ2-MEL) [%],cell count (MeWo) [%],cell count (RPMI7951) [%],cell count (RVH-421) [%]
"CCCS(=O)(=O)Nc1ccc(F)c(C(=O)c2c[nH]c3ncc(Cl)cc23)c1F + CC(C)CCN1c2nc(Nc3cc(F)c(O)c(F)c3)ncc2N(C)C(=O)C1C [BID1870] (first compound 0.4 µM, partner dose 1 µM)",65.8,71.2,73.9,110,81.2,69.4,94,80.7,103,65.8
"NC1(c2ccc(-c3nc4ccn5c(=O)[nH]nc5c4cc3-c3ccccc3)cc2)CCC1 + CNC(=O)c1cc(Oc2ccc(NC(=O)Nc3ccc(Cl)c(C(F)(F)F)c3)cc2)ccn1 [sorafenib] (first compound 2 µM, partner dose 2 µM)",84.9,66.2,114,69.4,86,90.5,115,84.1,117,85.7
"CS(=O)(=O)c1ccc(C(=O)Nc2ccc(Cl)c(-c3ccccn3)c2)c(Cl)c1 [vismodegib] + CCc1ccc(CCOc2ccc(CC3SC(=O)NC3=O)cc2)nc1 [pioglitazone] (first compound 5 µM, partner dose 10 µM)",84,86.9,83.2,104,87.8,77.1,103,89.5,73,89.6
"CN(c1ncccc1CNc1nc(Nc2ccc3c(c2)CC(=O)N3)ncc1C(F)(F)F)S(C)(=O)=O + O=C(O)c1ccc(-c2c[nH]c3ncc(-c4ccccc4)cc23)cc1C1CCCC1 [GSK650394] (first compound 0.4 µM, partner dose 0.8 µM)",50.7,92.2,78,91.5,74.4,79.9,81.7,100,76.6,82.1
"C=C(c1ccc(C(=O)O)cc1)c1cc2c(cc1C)C(C)(C)CCC2(C)C [Bexarotene] + Cc1nc(Nc2ncc(C(=O)Nc3c(C)cccc3Cl)s2)cc(N2CCN(CCO)CC2)n1 [dasatanib] (first compound 10 µM, partner dose 0.02 µM)",72.2,70.3,68,97.3,36.6,62.9,47.9,91.1,44.3,54.8
"C=C(c1ccc(C(=O)O)cc1)c1cc2c(cc1C)C(C)(C)CCC2(C)C [Bexarotene] + O=C(O)C(=O)Nc1sc2c(c1C(=O)O)CCNC2 [TCS401] (first compound 10 µM, partner dose 8.33333 µM)",70.8,85.5,105,109,106,83.5,106,94.8,101,77.4
"CS(=O)(=O)c1ccc(C(=O)Nc2ccc(Cl)c(-c3ccccn3)c2)c(Cl)c1 [vismodegib] + O=S(=O)(c1ccccc1)N(CC(F)(F)F)c1ccc(C(O)(C(F)(F)F)C(F)(F)F)cc1 [T0901317] (first compound 5 µM, partner dose 7 µM)",74.8,74.5,93.7,93.4,113,88.2,91.7,83.9,82,117
"C=C(c1ccc(C(=O)O)cc1)c1cc2c(cc1C)C(C)(C)CCC2(C)C [Bexarotene] + Oc1cc(-c2nc(-c3ccccc3)[nH]c2-c2ccncc2)ccc1Cl [L779450] (first compound 10 µM, partner dose 1 µM)",67.4,86.7,84,138,156,85.4,110,94.7,82.3,86.5
"NC1(c2ccc(-c3nc4ccn5c(=O)[nH]nc5c4cc3-c3ccccc3)cc2)CCC1 + OCCn1cc(-c2cnc3nnn(Cc4ccc5ncccc5c4)c3n2)cn1 [PF04217903] (first compound 2 µM, partner dose 5 µM)",91.2,119,79.9,74.2,97.5,83.2,103,86,88.3,79.4
"CCCS(=O)(=O)Nc1ccc(F)c(C(=O)c2c[nH]c3ncc(Cl)cc23)c1F + Cc1ccc(NC(=O)c2cccc(N(C)C)c2)cc1NC(=O)c1ccc(O)cc1 [ZM336372] (first compound 0.4 µM, partner dose 10 µM)",77.2,108,21.4,108,85,96,114,104,91.8,72.1
"CCCS(=O)(=O)Nc1ccc(F)c(C(=O)c2c[nH]c3ncc(Cl)cc23)c1F + COc1ccc2c(c1)CCC1C2CCC2(C)C(NCCCCCCN3C(=O)C=CC3=O)CCC12 [U73122] (first compound 0.4 µM, partner dose 2 µM)",94,94.3,95.5,86.6,101,100,84,71.9,88.6,82.4
